# Reference: article PMC5686351, “Tudor-domain protein PHF20L1 reads lysine methylated retinoblastoma tumour suppressor protein” (Cell Death and Differentiation, 2017)
# No constants are given. Whether binding was seen depends on the method and setting. For some of these results: Binding seen in cells or lysates may run through a third protein. Some entries that bind do so weakly or less than the wild type. For some of these results: Tags and fused reporters may be left off the sequences shown.
# T1: RbK810me1 peptide (biotin-…[me]SPYKISEG) (human)
# T1 sequence (peptide, biotin on the N-terminus; mono-methyl-lysine K[me] at K810): GNIYISPLKSPYKISEG
# T2: tudor 1 domain of PHF20L1 on the CADOR array (UniProt A8MW92)
# T2 sequence: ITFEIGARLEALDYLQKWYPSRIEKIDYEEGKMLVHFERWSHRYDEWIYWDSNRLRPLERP
# T3: HA-pRb (human) (UniProt P06400)
# T3 sequence: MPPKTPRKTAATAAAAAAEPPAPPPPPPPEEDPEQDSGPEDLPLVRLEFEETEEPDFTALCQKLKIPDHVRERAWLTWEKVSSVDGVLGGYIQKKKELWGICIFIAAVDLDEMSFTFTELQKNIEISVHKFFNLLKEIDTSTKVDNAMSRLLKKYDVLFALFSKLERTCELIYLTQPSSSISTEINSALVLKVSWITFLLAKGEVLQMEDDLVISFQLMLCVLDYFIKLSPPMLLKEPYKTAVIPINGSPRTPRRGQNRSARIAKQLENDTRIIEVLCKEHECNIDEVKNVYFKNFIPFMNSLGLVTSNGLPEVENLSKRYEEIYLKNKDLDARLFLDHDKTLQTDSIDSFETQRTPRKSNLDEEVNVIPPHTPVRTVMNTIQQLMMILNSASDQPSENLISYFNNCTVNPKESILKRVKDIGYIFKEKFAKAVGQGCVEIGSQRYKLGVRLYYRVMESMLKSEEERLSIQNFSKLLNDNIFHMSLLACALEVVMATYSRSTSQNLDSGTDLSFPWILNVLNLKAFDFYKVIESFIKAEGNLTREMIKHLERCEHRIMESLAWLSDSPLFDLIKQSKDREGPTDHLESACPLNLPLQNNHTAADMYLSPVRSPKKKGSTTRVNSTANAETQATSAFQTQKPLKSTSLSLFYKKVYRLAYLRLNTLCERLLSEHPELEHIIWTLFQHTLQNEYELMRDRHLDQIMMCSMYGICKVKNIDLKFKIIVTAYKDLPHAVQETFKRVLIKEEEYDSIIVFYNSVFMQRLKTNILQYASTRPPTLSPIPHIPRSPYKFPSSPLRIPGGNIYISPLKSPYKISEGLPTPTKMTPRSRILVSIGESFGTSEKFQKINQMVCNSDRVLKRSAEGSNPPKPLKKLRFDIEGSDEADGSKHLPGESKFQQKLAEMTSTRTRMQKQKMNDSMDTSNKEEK
# How the values were obtained:
# [1] = biological target: T1, RbK810me1 peptide (biotin-…[me]SPYKISEG) (human); assay: pull-down; peptides immobilised on streptavidin-agarose; 250 ng recombinant GST fusion, 30 min at 4 °C; eight washes in modified RIPA with 300 mM NaCl; flow-through and eluate blotted; both purified
# [2] = biological target: T2, tudor 1 domain of PHF20L1 on the CADOR array; assay: peptide or protein array; CADOR array of GST-fused chromatin-associated domains, probed with labelled biotinylated pRb peptides; both purified
# [3] = biological target: T3, HA-pRb (human); assay: co-IP; U2OS pRb CRISPR cell lines stably expressing HA-pRb or HA-pRb-K810R; anti-HA agarose in modified RIPA; endogenous PHF20L1 detected by immunoblot
binding [1],Binder,also measured
binds weakly,"GST-PHF20 tudor 2 (58–148) (domain or fragment, UniProt Q9BVI0 58-148) FCWDSPYLRPLEKIQLRKEGLHEEDGSSEFQINEQVLACWSDCRFYPAKVTAVNKDGTYTVKFYDGVVQTVKHIHVKAFSKDQNIVGNARP",–
no binding,"GST-PHF20L1 tudor 2 (54–160) (domain or fragment, UniProt A8MW92 54-160) YDEWIYWDSNRLRPLERPALRKEGLKDEEDFFDFKAGEEVLARWTDCRYYPAKIEAINKEGTFTVQFYDGVIRCLKRMHIKAMPEDAKGQVKSQHPLSWCCPIDPAG",–
binds weakly,"GST-PHF20 tudor 1 (1–83) (domain or fragment, UniProt Q9BVI0 1-83) MTKHPPNRRGISFEVGAQLEARDRLKNWYPAHIEDIDYEEGKVLIHFKRWNHRYDEWFCWDSPYLRPLEKIQLRKEGLHEEDG",–
no binding,"GST-PHF20L1 tudor 1 D23A (domain or fragment, UniProt A8MW92 1-74) MSKKPPNRPGITFEIGARLEALAYLQKWYPSRIEKIDYEEGKMLVHFERWSHRYDEWIYWDSNRLRPLERPALR",–

# More lines, now with the values behind:
Binder,binding [1],also measured
GNIYISPLKSPYKISEG (biotin on the N-terminus; mono-methyl-lysine K[me] at K810) [RbK810me1 peptide (biotin-…[me]SPYKISEG)],–,binding [2]: binds
"endogenous PHF20L1 (protein, UniProt A8MW92 1-1017) MSKKPPNRPGITFEIGARLEALDYLQKWYPSRIEKIDYEEGKMLVHFERWSHRYDEWIYWDSNRLRPLERPALRKEGLKDEEDFFDFKAGEEVLARWTDCRYYPAKIEAINKEGTFTVQFYDGVIRCLKRMHIKAMPEDAKGQVKSQHPLSWCCPIDPAGSCNQSMGSEDWIALVKAAAAAAAKNKTGSKPRTSANSNKDKDKDERKWFKVPSKKEETSTCIATPDVEKKEDLPTSSETFGLHVENVPKMVFPQPESTLSNKRKNNQGNSFQAKRARLNKITGLLASKAVGVDGAEKKEDYNETAPMLEQAISPKPQSQKKNEADISSSANTQKPALLSSTLSSGKARSKKCKHESGDSSGCIKPPKSPLSPELIQVEDLTLVSQLSSSVINKTSPPQPVNPPRPFKHSERRRRSQRLATLPMPDDSVEKVSSPSPATDGKVFSISSQNQQESSVPEVPDVAHLPLEKLGPCLPLDLSRGSEVTAPVASDSSYRNECPRAEKEDTQMLPNPSSKAIADGRGAPAAAGISKTEKKVKLEDKSSTAFGKRKEKDKERREKRDKDHYRPKQKKKKKKKKKSKQHDYSDYEDSSLEFLERCSSPLTRSSGSSLASRSMFTEKTTTYQYPRAILSVDLSGENLSDVDFLDDSSTESLLLSGDEYNQDFDSTNFEESQDEDDALNEIVRCICEMDEENGFMIQCEECLCWQHSVCMGLLEESIPEQYICYICRDPPGQRWSAKYRYDKEWLNNGRMCGLSFFKENYSHLNAKKIVSTHHLLADVYGVTEVLHGLQLKIGILKNKHHPDLHLWACSGKRKDQDQIIAGVEKKIAQDTVNREEKKYVQNHKEPPRLPLKMEGTYITSEHSYQKPQSFGQDCKSLADPGSSDDDDVSSLEEEQEFHMRSKNSLQYSAKEHGMPEKNPAEGNTVFVYNDKKGTEDPGDSHLQWQLNLLTHIENVQNEVTSRMDLIEKEVDVLESWLDFTGELEPPDPLARLPQLKRHIKQLLIDMGKVQQIATLCSV",–,binding [3]: binds
"GST-PHF20 tudor 1+2 (1–148) (domain or fragment, UniProt Q9BVI0 1-148) MTKHPPNRRGISFEVGAQLEARDRLKNWYPAHIEDIDYEEGKVLIHFKRWNHRYDEWFCWDSPYLRPLEKIQLRKEGLHEEDGSSEFQINEQVLACWSDCRFYPAKVTAVNKDGTYTVKFYDGVVQTVKHIHVKAFSKDQNIVGNARP",binds weakly,–
